Measured values: PubChem BioAssay (Tox21)
Several values for one entry are separate records, joined by “and”; a condition that tells them apart may be missing. Equal values may be shown once. This list was built around the results that the source calls inconclusive (neither active nor inactive); the mix of calls is not that of the screen. Potencies of inconclusive entries are doubtful fits and often do not repeat. Some structures have more than one record in an assay (separate samples or runs), and their calls can disagree. Activity calls are given as the source filed them. The call rests on the fitted dose curve; in most records, active means well fitted curve in the direction sought with a large enough effect in the repeat runs; inconclusive means weak or mixed curves; inactive means no such curve, though single readings can be large; an effect the other way counts as inactive or inconclusive.

Key:
[1] = qHTS RealTime-Glo MT Cell Viability Assay in HepG2 cells - 24 hour (AID 1224867); conditions: RealTime-Glo luminescence; series mostly up to 76.8 µM; further: nearly all actives have a fitted effect of over 50% in size
Outline: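 HepG2 suspension premixed with RealTime-Glo reagents is plated at 600 cells per well and left 5 h at 37 C/5% CO2. Compounds in DMSO then go in, and bioluminescence reflecting viable cell number is recorded over 40 h.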

[2] = A CellTox Green Cytotoxicity Assay to monitor cytotoxicity in HEK293 cells - 40 hour (AID 1224871); conditions: CellTox Green fluorescence; series mostly up to 76.8 µM; further: nearly all actives have a fitted effect of over 45% in size
Outline: (§1)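 Tox21 screen in HEK293: membrane-impermeant cyanine dye fluoresces on binding dead-cell DNA; compound pinned 5 h post-seeding, plates held at 37 C, signal read repeatedly through 40 h.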

[3] = qHTS RealTime-Glo MT Cell Viability Assay in HepG2 cells - 8 hour (AID 1224873); conditions: RealTime-Glo luminescence; series mostly up to 76.8 µM; further: nearly all actives have a fitted effect of over 55% in size
Outline: (§2)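 HepG2 cells (600/well) mixed with RealTime-Glo MT reagent, settled 5 h at 37 C/5% CO2 before compound addition. Nonlytic NanoLuc luminescence from viable-cell prosubstrate reduction read repeatedly during 40 h treatment at 37 C.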

[4] = qHTS RealTime-Glo MT Cell Viability Assay in HEK293 cells - 32 hour (AID 1224868); conditions: RealTime-Glo luminescence; series mostly up to 76.8 µM; further: nearly all actives have a fitted effect of over 50% in size
Outline: (§3)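 Reads taken at 0, 8, 16, 24, 32 and 40 h from the same wells. HEK293 cells (600/well) carried RealTime-Glo reagents from seeding, with compound added after a 5 h settle at 37 C.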

[5] = qHTS RealTime-Glo MT Cell Viability Assay in HEK293 cells - 16 hour (AID 1224872); conditions: RealTime-Glo luminescence; series mostly up to 76.8 µM; further: nearly all actives have a fitted effect of over 50% in size
Outline: as §3

[6] = qHTS RealTime-Glo MT Cell Viability Assay in HEK293 cells - 40 hour (AID 1224874); conditions: RealTime-Glo luminescence; max response: stronger effect = lower value; further: nearly all actives have a fitted effect of over 50% in size; on max response: on the % scale 0 is the no-effect control and ±100 the full control effect
Outline: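 HEK293 + NanoLuc + prosubstrate, 600 cells/well; 5 h, 37 C/5% CO2; compound 23 nL in DMSO by pintool; 37 C; luminescence read at 0, 8, 16, 24, 32 and 40 h time points.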

[7] = A CellTox Green Cytotoxicity Assay to monitor cytotoxicity in HEK293 cells - 24 hour (AID 1224875); conditions: CellTox Green fluorescence; series mostly up to 76.8 µM; further: nearly all actives have a fitted effect of over 45% in size
Outline: as §1

[8] = qHTS RealTime-Glo MT Cell Viability Assay in HepG2 cells - 40 hour (AID 1224870); conditions: RealTime-Glo luminescence; series mostly up to 76.8 µM; further: nearly all actives have a fitted effect of over 50% in size
Outline: as §2

[9] = A CellTox Green Cytotoxicity Assay to monitor cytotoxicity in HEK293 cells - 0 hour (AID 1224869); conditions: CellTox Green fluorescence; series mostly up to 76.8 µM; further: nearly all actives have a fitted effect of over 50% in size; on Cytotoxicity: on the % scale 0 is the no-effect control and ±100 the full control effect
Outline: as §1
Potency means the concentration at half of the fitted maximal effect; tags describe the fitted curve by direction and shape.

## CCCN(CCOc1c(Cl)cc(Cl)cc1Cl)C(=O)n1ccnc1
[1]
  Potency: inconclusive: 43.6 µM [falling, partial curve]
[2]
  Potency: inconclusive: 34.7 µM [activator, partial curve, poor fit]
[3]
  Potency: inconclusive: 43.6 µM [falling, partial curve]

## O=C(NC(=O)c1c(F)cccc1F)Nc1cc(Cl)c(Oc2ncc(C(F)(F)F)cc2Cl)c(Cl)c1
[1]
  Potency: inconclusive: 46.9 µM [falling, partial curve, poor fit]
[4]
  Potency: inconclusive: 9.36 µM [cytotoxic, full curve, poor fit]
[5]
  Potency: inconclusive: 21 µM [cytotoxic, partial curve, poor fit]
[6]
  Potency: inconclusive: 18.7 µM [cytotoxic, partial curve]

## Oc1c(Br)cc(Br)cc1Br
[1]
  Potency: inactive
[4]
  Potency: inconclusive: 61.8 µM [cytotoxic, single point] and inconclusive: 61.6 µM [cytotoxic, partial curve, poor fit]
[5]
  Potency: inconclusive: 61.8 µM [cytotoxic, single point]
[6]
  Potency: inconclusive: 61.8 µM [cytotoxic, single point] and inconclusive: 61.6 µM [cytotoxic, partial curve, poor fit]

## CN1[C@@H]2CC[C@H]1CC(OC(=O)c1cc(Cl)cc(Cl)c1)C2 (stereo not given in full)
[1]
  Potency: inconclusive: 21.3 µM [falling, partial curve]
[4]
  Potency: inconclusive: 23.9 µM [cytotoxic, partial curve]
[6]
  Potency: inconclusive: 21.3 µM [cytotoxic, partial curve]

## CCCCN(CCCC)C(=S)[S-].CCCCN(CCCC)C(=S)[S-].[Zn+2]
[1]
  Potency: active: 34.7 µM
[3]
  Potency: active: 21.9 µM
[6]
  Potency: active: 11 µM
[7]
  Potency: active: 21.9 µM

## CCn1cc[n+](C)c1
[1]
  Potency: inconclusive: 35 µM [falling, partial curve, poor fit]
[8]
  Potency: active: 44 µM
[2]
  Potency: inconclusive: 49.4 µM [activator, single point] and inconclusive: 1.75 µM [activator, partial curve, poor fit]
[5]
  Potency: inconclusive: 1.75 µM [cytotoxic, full curve]
[7]
  Potency: inconclusive: 55.5 µM [activator, single point]

## C[C@@H]1CC[C@H]2[C@@H](C)C(=O)O[C@@H]3O[C@@]4(C)CC[C@@H]1[C@]32OO4
[1]
  Potency: inactive
[6]
  max response: inactive: -5.45%

## CCCn1cc[n+](C)c1
[1]
  Potency: inconclusive: 55.4 µM [falling, single point]
[8]
  Potency: active: 49.4 µM
[5]
  Potency: inactive

## Oc1ccc([C@H]2CNCc3c2ccc(O)c3O)cc1O
[1]
  Potency: inconclusive: 23.9 µM [falling, partial curve, poor fit]
[8]
  Potency: inactive
[2]
  Potency: inconclusive: 26.8 µM [activator, single point]
[5]
  Potency: inconclusive: 21.3 µM [cytotoxic, partial curve, poor fit]
[3]
  Potency: inconclusive: 19 µM [falling, partial curve]

## CCOCn1c(-c2ccc(Cl)cc2)c(C#N)c(Br)c1C(F)(F)F
[1]
  Potency: inconclusive: 6.92 µM [falling, full curve]
[8]
  Potency: inconclusive: 9.77 µM [falling, full curve]
[3]
  Potency: inconclusive: 24.5 µM [falling, partial curve, poor fit]
[6]
  Potency: active: 4.36 µM

## CC[C@H](C)[C@H]1O[C@]2(C=C[C@@H]1C)C[C@@H]1C[C@@H](C/C=C(\C)[C@@H](O[C@H]3C[C@H](OC)[C@@H](O[C@H]4C[C@H](OC)[C@@H](NC)[C@H](C)O4)[C@H](C)O3)[C@@H](C)/C=C/C=C3\CO[C@@H]4[C@H](O)C(C)=C[C@@H](C(=O)O1)[C@]34O)O2
[1]
  Potency: active: 9.77 µM
[8]
  Potency: active: 9.77 µM
[5]
  Potency: active: 6.92 µM
[3]
  Potency: active: 15.5 µM
[6]
  Potency: active: 4.36 µM

## CCCCC(O)(Cn1cncn1)c1ccc(Cl)cc1Cl (stereo not given)
[1]
  Potency: inconclusive: 54.9 µM [falling, partial curve]
[8]
  Potency: inconclusive: 48.9 µM [falling, single point]
[2]
  Potency: active: 54.9 µM
[5]
  Potency: active: 43.6 µM
[3]
  Potency: inconclusive: 48.9 µM [falling, partial curve]
[6]
  Potency: active: 43.6 µM
[7]
  Potency: inconclusive: 54.9 µM [activator, single point]

## CCC[N+]1(C)CCCC1
[1]
  Potency: inconclusive: 55.4 µM [falling, single point]
[3]
  Potency: inactive

## O=[N+]([O-])O.O=[N+]([O-])O.[Cd]
[1]
  Potency: inconclusive: 49 µM [falling, partial curve, poor fit]
[5]
  Potency: inconclusive: 0.195 µM [rising, partial curve]
[7]
  Potency: inconclusive: 61.6 µM [activator, single point]

## CC(=O)c1cc2c(cc1C)C(C)(C)C(C)CC2(C)C (stereo not given)
[1]
  Potency: inactive
[2]
  Potency: active: 19.5 µM
[5]
  Potency: inconclusive: 24.5 µM [cytotoxic, partial curve]
[7]
  Potency: active: 19.5 µM

## O=C(CCl)C(Cl)Cl
[1]
  Potency: inconclusive: 44.1 µM [falling, partial curve]
[8]
  Potency: inconclusive: 49.4 µM [falling, single point]
[7]
  Potency: inconclusive: 49.4 µM [activator, single point]

## N#CCCl
[4]
  Potency: inconclusive: 57.3 µM [cytotoxic, single point]

## CC(Cl)CCl (stereo not given)
[4]
  Potency: inactive

## COC(=O)Nc1nc2ccccc2[nH]1
[4]
  Potency: inconclusive: 3.47 µM [cytotoxic, full curve] and inconclusive: 4.9 µM [cytotoxic, full curve]
[9]
  Potency: inactive
[5]
  Potency: inconclusive: 21.9 µM [cytotoxic, partial curve] and inactive

## NP(N)(=O)NC(=O)c1ccc(F)cc1
[4]
  Potency: inactive

## [CH3][Sn]([Cl])([Cl])[Cl]
[4]
  Potency: inactive

## ClC(Cl)Br
[4]
  Potency: inactive

## O=C1OC(=O)C2C1C1(Cl)C(Cl)=C(Cl)C2(Cl)C1(Cl)Cl (stereo not given)
[4]
  Potency: inactive

## FC(Cl)(Cl)Cl
[4]
  Potency: inactive

## OCC1CO1 (stereo not given)
[4]
  Potency: inactive
[9]
  Potency: inconclusive: 49.8 µM [activator, partial curve, poor fit]
[2]
  Potency: inconclusive: 49.8 µM [activator, single point]
[7]
  Potency: inconclusive: 49.8 µM [activator, partial curve]

## CCN(CC)C(=O)C(C)Oc1cccc2ccccc12 (stereo not given)
[4]
  Potency: inconclusive: 49 µM [cytotoxic, partial curve, poor fit]

## CC(=O)[O-].[Tl+]
[4]
  Potency: inconclusive: 39.2 µM [cytotoxic, partial curve]

## Cc1ccccc1CCl
[4]
  Potency: inactive

## Nc1ccc([N+](=O)[O-])cc1[N+](=O)[O-]
[4]
  Potency: inconclusive: 42.6 µM [cytotoxic, partial curve, poor fit]

## C=CC(=O)OCCN(C)C
[4]
  Potency: inconclusive: 60.4 µM [rising, single point]

## OCC(O)CO
[4]
  Potency: inactive

## CCc1ccccc1N
[4]
  Potency: inconclusive: 0.219 µM [cytotoxic, single point]

## Cc1ccccc1C(=O)Nc1cccc(OC(C)C)c1
[4]
  Potency: inconclusive: 38.9 µM [cytotoxic, partial curve]
[8]
  Potency: inactive

## N#CC(c1ccccc1)c1ccccc1
[4]
  Potency: inactive and inconclusive: 17.4 µM [cytotoxic, full curve]
[9]
  Potency: inactive
[5]
  Potency: inconclusive: 19.5 µM [cytotoxic, full curve]

## ClCCCCBr
[4]
  Potency: inactive

## CC(C)=CC1C(C(=O)OCc2cccc(Oc3ccccc3)c2)C1(C)C (stereo not given)
[4]
  Potency: inactive

## O=S(=O)(c1ccc(Cl)cc1)c1ccc(Cl)cc1
[4]
  Potency: inconclusive: 49.6 µM [cytotoxic, partial curve]
[8]
  Potency: inconclusive: 35.1 µM [phenotype inactive, partial curve, poor fit]
[2]
  Potency: inconclusive: 24.8 µM [activator, full curve, poor fit]
[5]
  Potency: inconclusive: 49.6 µM [cytotoxic]
[3]
  Potency: inconclusive: 24.8 µM [phenotype inactive, partial curve, poor fit]
[6]
  Potency: inconclusive: 17.6 µM [cytotoxic, partial curve]
[7]
  Potency: inconclusive: 24.8 µM [activator, full curve, poor fit]

## CNC(=O)Oc1cc(C)c(SC)c(C)c1
[4]
  Potency: inconclusive: 54.9 µM [cytotoxic, single point]
[9]
  Potency: inconclusive: 21.9 µM [activator, single point]
[2]
  Potency: inconclusive: 49 µM [activator, single point]
[5]
  Potency: inconclusive: 54.9 µM [cytotoxic, partial curve]
[3]
  Potency: inactive
[6]
  Potency: inconclusive: 54.9 µM [cytotoxic, single point]
[7]
  Potency: active: 21.9 µM

## CCOC(=O)CP(=O)(OCC)OCC
[4]
  Potency: inactive

## CC(C)(C)c1cc([N+](=O)[O-])cc([N+](=O)[O-])c1O
[4]
  Potency: inconclusive: 9.75 µM [cytotoxic, full curve]
[8]
  Potency: inconclusive: 19.4 µM [falling, partial curve]
[2]
  Potency: inconclusive: 54.8 µM [activator, single point]
[5]
  Potency: inconclusive: 12.3 µM [cytotoxic, full curve]
[6]
  Potency: inconclusive: 9.75 µM [cytotoxic, full curve]

## O=P1(N(CCCl)CCCl)NCCCO1 (stereo not given)
[4]
  Potency: inactive

## CCC(C)(CC)c1cc(NC(=O)c2c(OC)cccc2OC)on1
[4]
  Potency: inconclusive: 39 µM [cytotoxic, partial curve, poor fit]
[9]
  Potency: inconclusive: 55.1 µM [activator, partial curve, poor fit]
[5]
  Potency: inconclusive: 52.9 µM [cytotoxic, partial curve, poor fit]
[6]
  Potency: inconclusive: 39 µM [cytotoxic, partial curve] and inconclusive: 47.1 µM [cytotoxic, partial curve, poor fit]
[7]
  Potency: inconclusive: 24.6 µM [activator, partial curve, poor fit]
